Assay results: article PMC7795115
Residue numbers refer to the chain shown, from its start. Results are given in words; binding and its absence hold for the method and conditions named. Binding seen in cells or lysates may run through a third protein. Some results given as binding are weak or reduced against the parent protein; the word gives no strength.

By UniProt entry, the sequences of proteins in these tests, tags left out.
UniProt P40763: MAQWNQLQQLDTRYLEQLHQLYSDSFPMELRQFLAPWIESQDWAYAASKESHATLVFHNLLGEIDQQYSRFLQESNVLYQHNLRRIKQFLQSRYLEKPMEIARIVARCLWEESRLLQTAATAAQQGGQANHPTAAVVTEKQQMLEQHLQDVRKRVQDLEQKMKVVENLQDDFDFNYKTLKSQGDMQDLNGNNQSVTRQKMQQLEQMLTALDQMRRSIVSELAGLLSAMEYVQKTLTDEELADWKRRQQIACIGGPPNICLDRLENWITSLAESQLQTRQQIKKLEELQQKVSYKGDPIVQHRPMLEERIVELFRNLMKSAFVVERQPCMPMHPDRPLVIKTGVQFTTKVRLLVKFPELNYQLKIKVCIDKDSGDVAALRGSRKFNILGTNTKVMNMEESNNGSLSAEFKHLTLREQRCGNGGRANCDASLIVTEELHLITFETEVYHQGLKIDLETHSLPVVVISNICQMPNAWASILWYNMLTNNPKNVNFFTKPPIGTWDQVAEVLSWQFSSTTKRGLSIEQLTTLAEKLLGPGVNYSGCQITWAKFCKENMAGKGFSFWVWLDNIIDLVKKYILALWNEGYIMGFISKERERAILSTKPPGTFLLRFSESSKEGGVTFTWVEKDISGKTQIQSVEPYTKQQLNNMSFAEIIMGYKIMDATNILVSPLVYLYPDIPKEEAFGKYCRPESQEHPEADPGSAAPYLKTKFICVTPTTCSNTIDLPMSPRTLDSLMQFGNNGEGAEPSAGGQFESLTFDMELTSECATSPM

Assays:
[1] = target: T1, IKKα K44A mutant, ectopically expressed from pcDNA3-IKKa mutant (K44A) (UniProt O15111); test: proximity ligation; Duolink PLA in HEK293T cells transfected with STAT3 and IKKα WT or K44A
T1 sequence: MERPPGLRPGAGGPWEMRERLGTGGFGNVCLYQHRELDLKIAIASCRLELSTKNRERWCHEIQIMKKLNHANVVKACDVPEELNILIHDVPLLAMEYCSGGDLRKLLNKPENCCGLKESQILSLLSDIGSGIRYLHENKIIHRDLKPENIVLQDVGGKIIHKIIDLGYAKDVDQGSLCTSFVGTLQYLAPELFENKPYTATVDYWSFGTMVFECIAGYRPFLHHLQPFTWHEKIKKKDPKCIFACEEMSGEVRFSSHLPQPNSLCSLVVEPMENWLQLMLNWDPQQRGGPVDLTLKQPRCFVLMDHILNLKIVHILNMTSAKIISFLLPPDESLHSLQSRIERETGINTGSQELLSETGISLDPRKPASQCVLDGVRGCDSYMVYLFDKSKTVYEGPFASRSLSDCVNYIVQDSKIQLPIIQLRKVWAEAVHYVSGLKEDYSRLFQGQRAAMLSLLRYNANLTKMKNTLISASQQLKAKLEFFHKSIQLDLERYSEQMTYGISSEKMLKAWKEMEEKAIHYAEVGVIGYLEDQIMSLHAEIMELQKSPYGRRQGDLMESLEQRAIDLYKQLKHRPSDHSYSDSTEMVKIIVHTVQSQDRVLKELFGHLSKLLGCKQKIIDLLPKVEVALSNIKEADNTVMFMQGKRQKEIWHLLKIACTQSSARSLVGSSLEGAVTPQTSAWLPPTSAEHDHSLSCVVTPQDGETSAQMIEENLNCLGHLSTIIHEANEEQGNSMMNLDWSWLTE

[2] = target: T2, IKKα wild type, ectopically expressed from pcDNA3-IKKa WT (UniProt O15111); test: as above
T2 sequence: T1 sequence with A44K

[3] = target: T1, IKKα K44A mutant, ectopically expressed from pcDNA3-IKKa mutant (K44A); test: co-IP; cells (HEK293T, MCF-10A, H-Ras MCF-10A) transfected with pCMV-HA-STAT3 plus pcDNA3-IKKa WT or K44A for 48 h; for WT against K44A followed by MG132 for 2 h; immunoprecipitation with IKKα or STAT3 antibodies, immunoblot
[4] = target: T2, IKKα wild type, ectopically expressed from pcDNA3-IKKa WT; test: as above
[5] = target: T3, α subunit of the inhibitor of the κB kinase (IKK) complex, IKKα, endogenous (human (endogenous in H-Ras MCF-10A and MDA-MB-231)) (UniProt O15111); test: proximity ligation; Duolink in situ PLA on fixed, permeabilised H-Ras MCF-10A and MDA-MB-231 cells with anti-STAT3 and anti-IKKα; endogenous proteins
T3 sequence: T1 sequence with A44K

[6] = target: T3, α subunit of the inhibitor of the κB kinase (IKK) complex, IKKα, endogenous (human (endogenous in H-Ras MCF-10A and MDA-MB-231)); test: co-IP; endogenous proteins in H-Ras MCF-10A lysate; immunoprecipitation with IKKα or STAT3 antibody at 4 °C overnight, protein A/G beads, immunoblot for the other protein; IgG as negative control

| binding [1] | binding [2] | binding [3] | binding [4] | binding [5] | binding [6] | Substance |
| --- | --- | --- | --- | --- | --- | --- |
| no binding | binds | no binding | binds |  |  | STAT3, ectopically expressed from pCMV-HA-STAT3 (from UniProt P40763 1-770) |
|  |  |  |  | binds | binds | Signal transducer and activator of transcription 3 (STAT3), endogenous (from UniProt P40763 1-770) |
